# Among all 43,000 compounds or so, about 200 (0.47%) were called active. Another 12% or so got no clear call; they are omitted. The call rests on the fitted dose curve; in most records, active means well fitted cell-killing curve with a large enough effect; inconclusive means small, poorly fitted or top-dose-only effect, or effect the other way; inactive means flat fitted curve, though single readings scatter. This is one part of the list.
# Experiment: Cell viability qHTS assay in S16 Pmp22-F2sN cells; further: nearly all actives have a fitted effect of over 65% in size
# Settings: S16 Pmp22-F2sN Schwann cells (luciferase reporters placed in the Pmp22 gene) viability, CellTiter-Glo, 24 h; series mostly up to 57.5 µM; activity change, negative = cytotoxicity: at the top concentration
# Outline: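 CellTiter-Glo counter-screen, qHTS, 1536-well. Cells: S16(c9) Pmp22-F2sN, 500-1,000/well in DMEM + 10% FBS. Cpd 23 nL pin transfer, 24 h, 37C/5% CO2. Read: luminescence, CCD imager.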
# On the % scale 0 is the no-effect control and ±100 the full control effect.
row,Compound,"activity change, negative = cytotoxicity"
1,CCOC(=O)c1ccc(CN(Cc2ccccc2C)S(=O)(=O)c2ccc(C(C)(C)C)cc2)cc1,inactive: 3.42%
2,COc1cccc(C2C(C(=O)Nc3ccccc3)=C(C)Nc3nc(-c4ccccc4)nn32)c1OC (configuration not stated),inactive: -9.98%
3,CC(C)(C)OC(=O)N1CCC(c2nnc(SCc3ccccc3)o2)CC1,inactive: 3.52%
4,Cc1cc(NC(=O)COc2ccccc2)cc(-c2nc3ccccc3o2)c1O,inactive: 8.13%
5,COc1ccc(-c2noc(-c3ccc(N4CCCCC4C)c([N+](=O)[O-])c3)n2)cc1OC (configuration not stated),inactive: 11.2%
6,COc1ccccc1CNC(=O)c1ccc(N2Cc3cccc(OC)c3Oc3ncccc32)s1,inactive: 1.99%
7,CCCn1c(-c2cccc(Br)c2)nc2ccccc21,inactive: 1.25%
8,Cn1ncc(C(=O)N2CCN(c3ccc(F)cc3)CC2)c1C1CCN(C(=O)OC(C)(C)C)CC1,inactive: 9.6%
9,CCCN1C(=O)C(Cc2nc3ccccc3c(=O)n2-c2cccc(C)c2)c2ccccc21 (configuration not stated),inactive: -0.156%
10,Cc1cc(C)c2c(=O)cc(C(=O)Nc3sc4c(c3C(=O)NCc3cccnc3)CCCC4)oc2c1,inactive: 0.484%
11,COC(=O)c1cc(S(=O)(=O)NCC2CCN(Cc3ccc(C)cc3)CC2)c[nH]1,inactive: -22.5%
12,CC(=O)c1cccc(NC(=O)c2ccc(-n3c(C)nnc3C)cc2)c1,inactive: 0.397%
13,CCOc1ccc(-n2c(SCC(=O)Nc3ccc(F)cc3)nc3c([nH]c4ccccc43)c2=O)cc1,inactive: 12.7%
14,CCC(Sc1nc2nccnc2c(=O)n1Cc1ccc(OC)cc1)C(=O)NC1CCCCC1 (configuration not stated),inactive: 9.37%
15,CC(C)n1c(SCC(=O)Nc2ccc(F)cc2)nc2c(oc3ccccc32)c1=O,inactive: -0.114%
16,CCOc1ccccc1CNC(=O)c1ccc2c(c1)sc1nc(-c3cccc(OC)c3)cn12,inactive: -8.09%
17,CC(C)C12CN3CC(C(C)C)(CN(C1)C3c1ccc(OCc3ccccc3)cc1)C2=O (configuration not stated),inactive: 6.01%
18,COc1ccc(/C=C/C(=O)Nc2sc3c(c2C(N)=O)CCC(C)C3)cc1OC (configuration not stated),inactive: 7.94%
19,Cc1ccc2c(c1)N(C(=O)N1CCC(C(=O)NC3CCCCCC3)CC1)CC(C)O2 (configuration not stated),inactive: 0.823%
20,COc1cc(NC(=O)Cc2c(C(=O)O)c(C)cn2C)cc(OC)c1,inactive: 4.99%
21,CCc1cccc(NC(=O)CSc2ncccc2C(=O)Oc2ccccc2Cl)c1,inactive: 12.3%
22,CNC(=O)c1c[nH]c2ccc(S(=O)(=O)Nc3cccc(Cl)c3C)cc2c1=O,inactive: -9.17%
23,Cc1cc(C)cc(OCc2ccc(C(=O)Nc3ccccc3F)o2)c1,inactive: 7.81%
24,CCOC(=O)c1c(NC(=O)c2cc(C)on2)sc(C)c1C,inactive: 3.32%

row,Compound,"activity change, negative = cytotoxicity"
1,Cc1ccc(-n2ncc3c(N4CCN(C)CC4)ncnc32)cc1Cl,inactive: -24.1%
2,CCOc1ccc(NC(=O)CCS(=O)(=O)c2cccc3nonc23)cc1,inactive: -17.5%
3,Cc1ccc(CSC2=Nc3ccccc3C3=NC(CC(=O)NC4CCCCC4)C(=O)N23)cc1 (configuration not stated),inactive: -21.5%
4,COc1ccc(CNC(=O)c2cc(Nc3ccc(C)cc3C)nc3ccccc23)cc1,inactive: -4.62%
5,CCCN(CCC)S(=O)(=O)c1ccc2c(c1)N(CC(=O)NC(C)c1ccccc1)C(=O)CS2 (configuration not stated),inactive: -8.18%
6,CCOc1ccc(NC(=O)C2CCCN(S(=O)(=O)c3ccc4[nH]c(=O)ccc4c3)C2)cc1 (configuration not stated),inactive: 2.46%
7,Cc1ccc(NC(=O)C(=O)c2cc(C)n(-c3ccc(F)cc3)c2C)cc1C,inactive: -13.6%
8,COc1cccc(-n2ccn(CC(=O)c3ccc(F)cc3)c(=O)c2=O)c1,inactive: 23.5%
9,COc1ccccc1N1CCN(C(=O)CSc2nc3ccccc3nc2Cc2ccccc2)CC1,inactive: 17.2%
10,CC(=O)c1ccc(N2C(=O)N(CC(=O)c3ccc(C)cc3)c3ccccc3S2(=O)=O)cc1,inactive: -0.844%
11,Cc1ccc2nc(-c3ccc(NC(=O)COc4ccccc4)cc3)sc2c1,inactive: 12.6%
12,CCN(c1cccc(C)c1)S(=O)(=O)c1nnc(NC(=O)c2ccccc2Cl)s1,inactive: -20.4%
13,COc1ccccc1N1CCN(C(=O)c2cc(-c3ccc(F)cc3)on2)CC1,inactive: 12.2%
14,COc1ccc(CCNC(=O)C(=O)NCC(c2ccc3c(c2)OCO3)N2CCOCC2)cc1OC (configuration not stated),inactive: 0.792%
15,Cc1cccc(-c2noc(CSc3nc(-c4ccc(F)cc4)cc(=O)[nH]3)n2)c1,inactive: -2.01%
16,Cc1cccn2c(=O)c(C(=O)NCCc3ccccc3)c(O)nc12,inactive: -10.4%
17,Cc1ccc2nc(CNC(=O)c3ccccc3)[nH]c2c1,inactive: 2.09%
18,CCOc1ccc(NC(=O)c2oc3ccccc3c2NC(=O)c2c(F)cccc2F)cc1,inactive: -3.02%
19,Cc1ccc(C2=Nc3ccccc3N(CC(=O)NCc3ccccc3Cl)C(=O)C2)cc1C,inactive: -24.8%
20,COc1ccc(N2Cc3cccc(C(=O)Nc4ccc(F)cc4)c3C2=O)cc1,inactive: -1.69%
21,COc1ccc(-n2ncc(C(=O)Nc3cccc(C(F)(F)F)c3)c2C2CCN(C(=O)OC(C)(C)C)CC2)cc1,inactive: 0.415%
22,CCOCCCN(Cc1ccco1)S(=O)(=O)c1cc2c(cc1C)NC(=O)CO2,inactive: 0.459%
23,CC(C)C(=O)NCC(c1ccc2c(c1)OCO2)N1CCN(c2ccccc2)CC1 (configuration not stated),inactive: -2.17%
